# Laboratory results from PMC4336329 (PLoS ONE, 2015).
# The whole screen tested about 310,000 compounds, of which about 2,200 (0.71%) showed an effect of 50% or more. The effect is printed as a negative number. The list shows a part of the results.
# Biological target: human ether-à-go-go-related gene (hERG) potassium channel (human, UniProt Q12809)
# Test: primary screen, population patch clamp on CHO cells stably expressing hERG
# human ether-à-go-go-related gene (hERG) potassium channel, sequence (Q12809 whole entry, looked up): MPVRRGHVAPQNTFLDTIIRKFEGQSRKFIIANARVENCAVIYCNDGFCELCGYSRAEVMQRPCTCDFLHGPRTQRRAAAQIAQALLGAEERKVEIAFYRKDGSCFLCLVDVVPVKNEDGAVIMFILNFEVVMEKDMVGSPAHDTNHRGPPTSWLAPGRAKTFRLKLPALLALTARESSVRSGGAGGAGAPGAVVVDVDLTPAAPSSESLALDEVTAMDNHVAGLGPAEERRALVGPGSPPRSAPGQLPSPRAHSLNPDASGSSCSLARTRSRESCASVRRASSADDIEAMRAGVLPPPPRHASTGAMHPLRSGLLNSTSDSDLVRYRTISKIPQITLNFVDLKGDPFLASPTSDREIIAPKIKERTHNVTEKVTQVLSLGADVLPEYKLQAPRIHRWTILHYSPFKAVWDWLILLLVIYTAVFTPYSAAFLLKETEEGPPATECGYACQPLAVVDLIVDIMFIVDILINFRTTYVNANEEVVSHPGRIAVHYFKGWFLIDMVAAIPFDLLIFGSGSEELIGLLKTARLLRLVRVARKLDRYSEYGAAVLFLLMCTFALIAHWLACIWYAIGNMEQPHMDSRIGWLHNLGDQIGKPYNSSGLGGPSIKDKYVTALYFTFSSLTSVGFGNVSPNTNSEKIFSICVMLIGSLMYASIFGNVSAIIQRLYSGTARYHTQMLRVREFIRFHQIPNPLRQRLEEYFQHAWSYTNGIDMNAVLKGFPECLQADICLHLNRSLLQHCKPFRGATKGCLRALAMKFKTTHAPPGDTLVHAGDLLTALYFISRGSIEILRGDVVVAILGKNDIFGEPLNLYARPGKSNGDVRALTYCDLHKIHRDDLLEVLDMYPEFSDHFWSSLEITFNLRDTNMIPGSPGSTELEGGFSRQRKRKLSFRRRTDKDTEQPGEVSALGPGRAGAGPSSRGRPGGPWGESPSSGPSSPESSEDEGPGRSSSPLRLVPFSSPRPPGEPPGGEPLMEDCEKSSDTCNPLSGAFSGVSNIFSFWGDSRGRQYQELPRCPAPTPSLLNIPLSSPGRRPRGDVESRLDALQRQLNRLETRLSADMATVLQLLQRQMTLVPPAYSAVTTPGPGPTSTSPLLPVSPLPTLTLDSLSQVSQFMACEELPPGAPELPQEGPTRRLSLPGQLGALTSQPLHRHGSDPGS
row,Structure (SMILES),"hERG current change (%, negative = inhibition) at 1uM [%]"
1,CCOc1ccc(/C=N/NC(=O)c2ccccc2Cl)cc1CN1CC2CC(C1)c1cccc(=O)n1C2 (stereo not drawn),9.79
2,O=C(CSc1nnnn1-c1cccc2ccccc12)N1CCOCC1,-5.83
3,CC(C)(C)n1ncc2c(=O)n(CC(=O)N3CCCc4ccccc43)cnc21,13.3
4,COc1ccc(C2C(C(=O)/C=C/c3ccco3)=C(O)C(=O)N2CCN2CCOCC2)cc1 (stereo not drawn),11
5,O=C(NC(=S)NC1CCSC1=O)c1cccs1 (stereo not drawn),14.2
6,COc1ccc([N+](=O)[O-])cc1NC(=O)c1ccccc1N(C)S(C)(=O)=O,7.36
7,CCCCCCCCN1[C@@H](CC(=O)O)c2ccc(C(F)(F)F)cc2S1(=O)=O,11.5
8,CC(=O)c1cc(-c2nc3ccccc3n2C)n(C)c1,12
9,CCCNC(=O)COC(=O)c1ccccc1C(=O)c1ccc(Cl)c([N+](=O)[O-])c1,14
10,CC(C)CC(C(=O)O)C(C)CC(=O)Nc1ccn(-c2ccccc2)n1 (stereo not drawn),-8.99
11,Nc1nc(-c2cc3ccccc3o2)cs1,9.32
12,CCC1=NN(C(=O)C(=O)Nc2ccc(OC)cc2)C(O)(C(F)(F)F)C1 (stereo not drawn),-3.93
13,N/N=C(\c1ccccc1)c1cc(Cl)ccc1N,11.7
14,COc1ccc(C(CNC(=O)c2ccc(OCc3c(C)noc3C)cc2)N2CCCC2)cc1 (stereo not drawn),7.88
15,CN(c1cccc(NC(=O)c2cccc([N+](=O)[O-])c2)c1)S(C)(=O)=O,18.1
16,Cc1cccc2cc(C3CC(c4ccco4)=NN3S(=O)(=O)c3ccccc3)c(Cl)nc12 (stereo not drawn),2.74
17,O=C(Nc1ccncc1)Nc1cccc(C(F)(F)F)c1,10.6
18,N#Cc1ccc(NC(=O)COC(=O)c2ccc(F)c(S(=O)(=O)N3CCOCC3)c2)cc1,-1.45
19,COc1ccccc1OCC(=O)NCC1CCCN(Cc2cnn(C)c2C)C1 (stereo not drawn),9.1
20,CSCCC(NC(=O)c1ccccc1Cl)C(=O)OCC(=O)N1CCCC1=O (stereo not drawn),14.2
21,COc1ccccc1NS(=O)(=O)c1cc(NC(=O)Nc2ccc(Cl)cc2Cl)ccc1N1CCCCC1,6.28
22,O=C(COC(=O)c1ccccc1Nc1ccccc1)NCc1ccco1,4.36
23,CCCNC(=O)c1ccc(N2CCC3(CC2)CC(c2ccccc2)=NO3)c(NC(=O)c2ccco2)c1,-15.6

row,Structure (SMILES),"hERG current change (%, negative = inhibition) at 1uM [%]"
1,COc1ccc2cc(C3(C)NC(=O)N(CC(=O)NCCC4=CCCCC4)C3=O)ccc2c1 (stereo not drawn),-0.626
2,COC(=O)[C@@H](CC(C)C)NS(=O)(=O)N(Cc1ccccc1)[C@@H](CC(C)C)C(=O)OC,11.1
3,O=[N+]([O-])C1=C(Nc2cccc3ccccc23)CS(=O)(=O)C1,8.5
4,Cc1ccc2c(c1)cc1c(=O)n(CC(=O)N3CCC4(CC3)OCCO4)nc(C)n12,5.81
5,COC(=O)CNc1nc(OC)nc(N(C)C)n1,10.7
6,S=c1[nH]nc(-c2ccco2)n1-c1ccc(Br)cc1,14.3
7,CC(C)CCNC(=O)CSc1nc2ccccc2c(=O)[nH]1,8.23
8,O=C(Nc1cccnc1)c1ccc([N+](=O)[O-])o1,13.6
9,O=C(CNC(=O)c1ccc(Cl)cc1)OCCN1C(=O)c2ccccc2C1=O,5.68
10,CC(=O)O.COc1ccc(N2C(=O)C(CC(N)=O)N(NC(=O)CCc3ccccc3)C2=O)cc1 (stereo not drawn),11.9
11,O=C1NCCn2nc3ccccc3c21,18.3
12,CC1(NC(=O)c2ccccc2)CCN(CCc2cccs2)C1=O (stereo not drawn),13.8
13,Cc1cnc(C(=O)Nc2ccc(F)cc2)cn1,13.2
14,CCOc1cc(N2CCOCC2)c(OCC)cc1NC(=O)COc1cccc(Cl)c1,-0.225
15,CCN1C(C)=C(C)S/C1=C1\SC(=S)N(N)C1=O,10.8
16,CCn1c(SCC(=O)Nc2cc(C)on2)nnc1-c1ccccc1,10.5
17,CCCCCCCCC(=O)N/N=C(\C)c1ccc(O)cc1O,1.66
18,CCCn1c(CN2CCCCC2CC)nc2c1c(=O)n(C)c(=O)n2C (stereo not drawn),8.63
19,C=CCNC(=S)Nc1sc2c(c1C(=O)OCC)CC(C)(CC)OC2 (stereo not drawn),-3.13
20,CC(C[N+](C)(C)C)OC(N)=O.[Cl-] (stereo not drawn),9.87
21,O=S1(=O)c2ccccc2C(CCO)N1Cc1ccccc1 (stereo not drawn),9.77
22,O=C(COc1ccccc1Cl)NCCC1=CCCCC1,9.45
23,O=C(CCCOc1ccc(Cl)cc1Cl)N/N=C/c1ccc(Cl)cc1,1.91

row,Structure (SMILES),"hERG current change (%, negative = inhibition) at 1uM [%]"
1,CCCN(CC(=O)Nc1ccccc1C)C(=O)c1sc2ccccc2c1Cl,8.62
2,CC(=O)c1ccc(OCCCC(=O)Nc2ccc3c(c2)OCCO3)cc1,14.5
3,CCOc1ccc(NC(=O)CSc2nnc(C)n2CC2CCCO2)cc1 (stereo not drawn),10.9
4,CCN(CC)CCN1C(=O)C(=O)/C(=C(/O)c2ccc(C)cc2)C1c1cccnc1 (stereo not drawn),9.31
5,Cc1ccc(/C=C(\C#N)C(=O)N2CCCC2)c(C)c1,23.5
6,Cc1cc(C)n2c(SCCC(C)C)nnc2n1,-6.81
7,CCCOc1cc(C)c(Cl)cc1S(=O)(=O)N(CC)CC,3.85
8,O=C(O)CCn1cc(C(=O)O)c(-c2ccccc2)n1,14.4
9,O=C(NCc1cccs1)C1CCCN(C(=O)Nc2ccccc2)C1 (stereo not drawn),12.7
10,Nc1ccc2c3c(cccc13)CC2,2.18
11,CC1CCc2c(C(=O)OCC(=O)Nc3cccc(S(=O)(=O)N4CCCCCC4)c3)csc2C1 (stereo not drawn),10.4
12,CCc1ccc2nc(Nc3ccc(OC)cc3OC)c(C#N)cc2c1,7.84
13,COC(=O)NC(=S)N1CCOCC1,5.23
14,COc1ccc(C(=O)C2CCN(C(=O)c3ccco3)CC2)cc1,9.65
15,O=C(O)COn1c(-c2ccc(Cl)cc2)nc2ccc(Cl)cc21,14.8
16,CC(C)c1cc(C(=O)N/N=C/c2c[nH]c3ccccc23)n[nH]1,10.8
17,COC(=O)C1=C(C)OC(N)=C(C#N)C1c1ccc(OC)c(CSc2ccccn2)c1 (stereo not drawn),2.68
18,COc1ccccc1NS(=O)(=O)c1cc(NC(=S)NCCN2CCOCC2)ccc1N1CCOCC1,0.508
19,Cc1cc(=O)oc2c(C)c(OCC(=O)NCCCN3CCCC3=O)ccc12,15.8
20,CCOc1ccc(N/N=C(/C#N)C(N)=O)cc1,3.39
21,O=C(NCc1ccco1)C12CN(Cc3ccccc3)CC1C(c1ccc([N+](=O)[O-])cc1)=NO2 (stereo not drawn),-21.7
22,O=C(NCCCn1ccnc1)Nc1cccc2ccccc12,8.71
23,Br.c1ccc2oc(SCc3cn4ccsc4n3)nc2c1,6.12

row,Structure (SMILES),"hERG current change (%, negative = inhibition) at 1uM [%]"
1,CCCCn1c(=O)[nH]c(=O)c2c1nc(COC(=O)c1c(C)noc1C)n2CCC,-20.9
2,Cc1onc(-c2c(F)cccc2Cl)c1C(=O)OCN1C(=O)c2ccccc2C1=O,11.7
3,Cc1cc(C)cc(NC(=O)CCC(=O)Nc2cc(C)on2)c1,14.3
4,CCOc1cc(C(=O)Nc2ccc3c(c2)OCO3)ccc1OCCOc1ccccc1Cl,6.95
5,COc1ccc(-n2c(C)cc(C(=O)CSc3nn4c(=O)c(C(C)(C)C)nnc4s3)c2C)cc1,4.53
6,COc1ccc(-c2cn3ccc4ccccc4c3n2)cc1,13.5
7,Cc1ccc(CNC(=O)c2cc(=O)c3cc(C)ccc3o2)cc1,17.7
8,Cc1cc(C)nc(NC(=O)COc2cc(Cl)cc(Cl)c2)n1,8.54
9,Cc1ccc(S(=O)(=O)NCCC(=O)Nc2ncccc2O)cc1C,15.5
10,Cc1ccc(S(=O)(=O)NCC(=O)N2CCc3ccccc3C2)cc1,7.38
11,CCN(CC)CCn1c(SCC(=O)NCc2ccco2)nc2c(sc3ccccc32)c1=O,-50.4
12,Cn1c(C(=O)Nc2ccc3c(c2)OCO3)cc2c(=O)n(C)c3ccccc3c21,9.7
13,CCC(=O)N1CCc2cc(S(=O)(=O)NCCC(=O)Nc3ccc(OC)cc3)ccc21,-6.48
14,Fc1ccccc1Cn1nnc2c(NCCc3ccccn3)ncnc21,2.28
15,COc1ccc(C2CC(c3cccs3)=NN2C(=O)CSc2nc(=O)n3ccc(C)cc3n2)cc1 (stereo not drawn),2.7
16,O=C(COC(=O)C1CC2CCCC(C1)C2=O)NC1CCCCC1 (stereo not drawn),14.2
17,C=CCSC1=N/C(=C\c2cc(OC)c3c(c2)OCO3)C(=O)S1,8.6
18,CC1=C(c2ccc(C)cc2)S(=O)(=O)N(CC(=O)O)C1=O,-9.85
19,O=S(=O)(c1ccc(F)cc1)N1CCN(C(=S)NC2CCCC2)CC1,9.1
20,O=C(OCCCCOC(=O)c1ccccc1)c1ccccc1,13.6
21,CCc1cccc2c1Sc1ccccc1CC2N1CCNCC1.CS(=O)(=O)O (stereo not drawn),10.2
